This is one part of the list.
test system: PfSIP2 AP2 domain 1 (GST-tagged); test: gcPBM binding intensity (ln(normalized median fluorescence intensity)); higher = stronger DNA binding
In short: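 An Agilent 4 × 180k array of primer-extended double-stranded 36-bp intergenic genomic probes, with negative controls, was incubated for 1 h with GST-tagged P. falciparum DNA-binding domains expressed in E. coli. Alexa488 anti-GST antibody detected bound protein, scanned at 488 nm. Binding intensity is the highest Masliner-normalised natural-log median intensity across replicate spots of either probe orientation.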

In order of falling “gcPBM binding intensity (ln)” value:
1. TTTTAAAATTATTAGGTGCATATTTATTCTATATTT  10
2. AAAAAAAAAAAATATATATATATATATATATATATA [CACACA_negctrl_site1606]  9.7
3. ATTGGACTATAAATAGGTACACATATATATATATAT [XGTACX_site7562]  9.63
4. ATCAACAAAACATACACACACATATATATATATATA [CACACA_site2989]  9.6
5. TATATATATATATGGGGTACAAATGGTCAGTATTAT [XGTACX_site1223]  9.5
6. AAAAAGAATAAATAAATAAATAAATATATATATATA [GTGCAC_negctrl_site584]  9.47
7. AATAAAAATAATATAGTGCATAATATAAGGAAAAAA  9.36
8. ATATATATATATATAACACACGTGTATATATATGTA [CACACA_site3644]  9.34
9. ATATATATATATATATGTACTGAATAAAGAACAAAA [XGTACX_site5400]  9.08
10. ATATTATATAAATACACACACACATGCATGCACATA [CACACA_site4236]  9.02
11. AGGGGAAATAAAATATAAATTATCATATATATATAT [XGTACX_negctrl_site366]  8.85
12. TTTAAATATAATTGGAGTACTTATAATATATATATA [XGTACX_site7247]  8.8
13. ATCTAAATAAAGTTAACACACACATAATATATATAT [CACACA_site8055]  8.7
14. ATTACACATATAGTAGTGCAATAACTCCAAAAAAAA  8.48
15. AGGTCTATATAATAAGTGCATTTTTTTTTTTTTTTT [GTGCAC_site9664]  8.44
16. TTTTTTGTTAAAAGAGTGCAAATTTTTAAAGATTTG [GTGCAC_site9502]  8.43
17. TTATTTTTGTTCATAGTGCATAGAATTTATACATAT  8.42
18. ATAGACAGCGCACAAACACACAAACACAGACCCCCA [CACACA_site4409]  7.81
19. TGTATATATAAACATGCACACGTGGTTGTATATATA [CACACA_site9078]  7.64
20. TAATGTACATAAACCGCACACATATAAAAAAATAAA [CACACA_site2851]  7.59
21. TATATATCAATATTTACACACATGCGCCCACATAAA [CACACA_site7185]  7.57
22. CAAATACAGAAACACACACACATATACATATATATA [CACACA_site3498]  7.55
23. CATATATATTTTATTTGTACGTATAAAAAAACAAAA [XGTACX_site4253]  7.51
24. TATATATATTATATATGTACATATATTTTTTTTTTT [XGTACX_site127]  7.5
25. AAAAAAAAAAAAAAATACAAGCACATTTATATAAGC [GTGCAC_negctrl_site695]  7.49
26. TTTTTTTTATGGTACACACACGCGTATGGTTGCACG [CACACA_site1877]  7.49
27. ATTTATATTACAAAAAGTACACACATAAATAAATAC [XGTACX_site1827]  7.48
28. CCTATTTATTTATACACACACATATATAAATAAATA [CACACA_site7417]  7.44
29. TGTTTTTTTATTTTCACACATAATCCAATTATACAT [CACACA_site6070]  7.38
30. TAAAAAAAAACATATACACACAAAAACGTACACATA [CACACA_site1354]  7.29
31. TTTTTTTCTCACAATCGTACATAAATACATATATAT [XGTACX_site3150]  7.29
32. TATATTTTTTAAACCACACACAATATAGAGTAGAAT [CACACA_site613]  7.29
33. CTATGCCCCATATAAACACACAAATAAAAAGAATAT [CACACA_site2681]  7.27
34. AAAAAAAAAAAATATGTACACACATATATAATACAT [CACACA_site8473]  7.24
35. CGTATATGACAAAAGCGTACGCATCAGCAGAAAAAT [XGTACX_site6248]  7.24
36. TCTTTGTAAATTTCTTGTACGTAAATTTTTTTTAGG [XGTACX_site7062]  7.21
37. ATTATTTGAAACTATTGTACATTTAAAAACATTTTT [XGTACX_site4896]  7.2
38. TCATAGTATAGACACACACACACACGCATATAAATA [CACACA_site6915]  7.17
39. ATATGAAAAAGAACTTGTACTAAAGTGGCATATTAT [XGTACX_site8520]  7.16
40. AATATTTTAAAAAAAAGTACATTATATATATATGTT [XGTACX_site8073]  7.16
41. AATATGTAATAGTGTACACATATATCTGTATTTATG [CACACA_site4252]  7.15
42. TTTTTTTCTTTTGGGAGTACCAACATTTTCACATAT [XGTACX_site1371]  7.15
43. TATTTTACATCTTCTCACATTTTATCACTTTTTAAA [CACACA_negctrl_site330]  7.15
44. AAAAAAAAAAAAAACACACACATATAAATATAAATA [CACACA_site6972]  7.12
45. TATTAATCATATAAATGTACGTATATATATTTTTCT [XGTACX_site1421]  7.07
46. AAAAAAAAATTATATACACACATATAAATATATATA [CACACA_site1197]  7.07
47. TGCTTATATTTTTATACACACAAGATACTTTTTGTT [CACACA_site1535]  7.07
48. AATAAAAAGGAACACACACACACACGGATATAAATA [CACACA_site7658]  7.07
49. TGCAATGGAGCATAAAGTACATATAATTGTATTTTT [XGTACX_site7349]  7.06
50. TAGAATAATCCTTACACACACACACCCACGAATAAA [CACACA_site483]  7.06
51. AAAATCTAGGTATTTATACACACTAAAATAATATAC [CACACA_site623]  7.03
52. TTTGTAATAAATAAGAGTACAAGTATGGTTCCACTA [XGTACX_site2579]  7.01
53. ATGTTATTAAAAAAGGGTACACATCTTTTATGTTAA [XGTACX_site812]  7.01
54. AAAAAAAAAAGACACACACACACAAATACATACACA [CACACA_site6472]  6.99
55. TTTTAAAAAAAAAAAAAAAAAAAAAAAAAAAAAAAA [CACACA_negctrl_site1343]  6.99
56. CATATCATTGATTATAGTACACATACCATTTTTTAT [XGTACX_site6572]  6.99
57. TATAATATATTATAACGTACAAATATATATATAAAA [XGTACX_site6581]  6.98
58. GTTATACTCATCAACACACACATACAACGTGGTGTA [CACACA_site4789]  6.98
59. TTAAAAAAATATAGAGCATGCTAAAAATAAAAAAAT [TGCATGCA_site794]  6.97
60. AAAAAAAATGATAATATACACACTTATGGGAGAGCG [CACACA_site2516]  6.97
61. TGTATACATTCTGAATGTACGGAACACCTCATAACT [XGTACX_site7240]  6.94
62. AAAAAGAAAAAAAAATGTACATAAAGTCTAATGATA [XGTACX_site4781]  6.94
63. GAAAATATAAAAAAAAGTACATTTTCTCTAAATATA [XGTACX_site2441]  6.93
64. TTTATTACTATGTAAACACACATGCAATATATGTTA [CACACA_site1114]  6.93
65. AGTAATATAATATAAGCACACGTGTATTTATTTAGG [CACACA_site7921]  6.92
66. AAAACAAATAAGTAAACACACATATAAAATCTATAT [CACACA_site7262]  6.9
67. TATATGTTTGAATATACACACAACATATTTATATAT [CACACA_site7832]  6.9
68. CTATATAATATGAGCACACATAAGATTTGGTGTTAT [CACACA_site744]  6.89
69. TAGTATTAAAATATTTGTACTTATATGTATTATATA [XGTACX_site538]  6.89
70. AAAAAGGGTATTATTACACACACGTAAATATTAAGA [CACACA_site4233]  6.88
71. TAAGAATTGAAAAAATGTACACAATATAAAATTGAA [XGTACX_site698]  6.88
72. AATACAGAGGAAAATACACACGTATATATATAAATA [CACACA_site9125]  6.88
73. AAATACATTAAAATGACATGCAGATATATATCAAAA [TGCATGCA_site477]  6.87
74. TTATGTAAATGCTTATGTACTTATTACAATATTTTT [XGTACX_site4057]  6.86
75. AGAATATGTTAAAAAAGTACATACTCTTTATATACG [XGTACX_site79]  6.83
76. AGAATTCGTTTAAAAAGTACATTCAATTTAATAATG [XGTACX_site6603]  6.83
77. TTTCTATATCTATTTAATTAACTTTTTATACTGATT [GTGCAC_negctrl_site415]  6.82
78. TGAATAAAGATATATACACACATATAGGTATATATC [CACACA_site6870]  6.81
79. TGTAGTCTGGAGAAGAGTACACAGTATCTGGTAACA [XGTACX_site2038]  6.81
80. GCATCTCATTTGTGATGTACTATATTATCCGTTTTT [XGTACX_site7576]  6.79
81. CACATAAAAAAATAAACACACATATGTATTTATATA [CACACA_site5718]  6.77
82. AATATATGGTTTCATGATATTAAATTCAAAATAATG [CACACA_negctrl_site318]  6.75
83. TATAAAATGATGATATGTACTTATGTAGTTTTTTTA [XGTACX_site8711]  6.74
84. AGAAATAAGAAATATACACACATATAAATATAAATA [CACACA_site7342]  6.74
85. CAATCATAGAAAAACAGTACGTGTAGCAAACATCCT [XGTACX_site4889]  6.69
86. CAACACTTAGATTTTAAGTTCACTGGTTAATATATA [CACACA_negctrl_site707]  6.69
87. TAAATACTTGTATATAGTACAAGTTGTTTTTTTTAA [XGTACX_site5643]  6.65
88. TGGAACCTTTAAAATACACACCCAAATCCTTTGAAA [CACACA_site7671]  6.62
89. TCATATATTCAAAAATTTAAAGTTAATAAAACTTGA [CACACA_negctrl_site1546]  6.58

From the supplement of paper PMC11417369
